About 150 (0.038%) of roughly 390,000 compounds were called active. The shares of active, inactive and inconclusive entries below differ from those in the screen. Calls follow the shape of the dose curve; as a rule, active = well fitted inhibition curve with a large enough effect; inconclusive = small, poorly fitted or top-dose-only effect; inactive = no such curve, though single readings can be large or run the other way. Potencies beside an inconclusive call are fits to weak or partial responses and may not hold up.
Molecular target: Regulator of G-protein signaling 4 (Homo sapiens) (UniProt P49798)
Test: Inhibitors of Regulator of G Protein Signaling (RGS) 4: qHTS; also: nearly all actives have a fitted effect of over 75% in size
Conditions: Transcreener GDP fluorescence polarization, RGS4-accelerated GTP hydrolysis; series mostly up to 114 µM; activity change, negative = inhibition: at the top concentration
Outline: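 MLSMR compounds (23 nl, pin-transferred) preincubated 10 min at room temperature with a 500nM (2x) first reagent, then RGS4 at 900nM (2x) plus Transcreener GDP mix added; fluorescence polarization (620/688 nm) read before and after 90 min at 30 °C.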
% is scaled to controls: 0 for no effect and ±100 for the full control effect; potency is read from the fitted curve at half-maximal effect; tags tell the direction and shape of the fitted curve.

Chain of UniProt P49798 (P49798 whole entry, looked up): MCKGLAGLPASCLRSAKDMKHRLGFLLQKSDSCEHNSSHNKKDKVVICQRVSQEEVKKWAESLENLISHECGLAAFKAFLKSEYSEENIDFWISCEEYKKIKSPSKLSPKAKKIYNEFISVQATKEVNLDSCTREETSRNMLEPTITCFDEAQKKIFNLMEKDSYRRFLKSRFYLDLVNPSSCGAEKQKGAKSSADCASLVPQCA

Structure (SMILES)	activity change, negative = inhibition	Potency
C=CCNC(=S)N/N=C/c1cn(C)c2ccccc12	inactive: -32.1%	–
O=C(Nc1ccc2[nH]c(=O)[nH]c2c1)c1ccc([N+](=O)[O-])o1	inactive: 28.5%	–
Cc1ccc(NC(=O)c2nc(-c3ccncc3)no2)c(Cl)c1	–	inconclusive: 100 µM [inhibitor, single point]
C/C(CCc1oc2ccccc2c1-c1ccc(C)o1)=N/O	–	inconclusive: 79.4 µM [inhibitor, partial curve, poor fit]
CC(C)N=C1NN=C(c2cccs2)C(CC(=O)O)S1 (stereo not given)	–	inconclusive: 17.8 µM [inhibitor, full curve, poor fit]
CN(CC(=O)Nc1cccc(F)c1)CC(=O)Nc1cccc(S(=O)(=O)N2CCCCC2)c1	inactive: -9.36%	–
Cc1c(Cl)cccc1NS(=O)(=O)c1ccccc1	–	inconclusive: 89.1 µM [inhibitor, single point]
Clc1ccc(Cl)c(-c2nn3c(COc4ccccc4)nnc3s2)c1	–	inconclusive: 79.4 µM [inhibitor, partial curve, poor fit]
CCn1nc(C)cc1-c1n[nH]c(=S)n1N	–	inconclusive: 79.4 µM [inhibitor, partial curve, poor fit]
CC(=O)Nc1ccccc1C(F)(F)F	–	inconclusive: 100 µM [inhibitor, single point]
Cc1cc(-c2ccccc2)[nH]c(=O)c1S(=O)(=O)c1ccc(Cl)cc1	inactive: -9.76%	–
COc1ccc(C2C(C#N)=C(N)N(c3cccnc3)C3=C2C(=O)CC(C)(C)C3)cc1OC (stereo not given)	inactive: -35%	–
Cc1cc(Cl)ccc1OCC(=O)Nc1cccc(S(=O)(=O)NC2=NCCCCC2)c1	–	inconclusive: 89.1 µM [inhibitor, single point]
COc1ccccc1-n1ccnc(SCC(=O)NCCc2ccccc2)c1=O	–	inconclusive: 79.4 µM [inhibitor, partial curve, poor fit]
O=c1c2cc(NC(=S)N3CCC(N4CCCCC4)CC3)ccc2nc2n1CCCCC2	inactive: -3.18%	–
CN1CCN(CCOCCOc2c(Cl)cc(Cl)cc2Cl)CC1	–	inconclusive: 35.5 µM [inhibitor, partial curve, poor fit]
C[C@@H](NC(=O)c1nc[nH]c1C(=O)OCc1ccccc1)c1ccccc1	inactive: -0.351%	–
COc1ccc(/C=C/C(=O)c2ccc(O)cc2)cc1CN1CCOCC1	inactive: -32.4%	–
Clc1ncc(C#Cc2ccccc2)c2ncncc12	–	inconclusive: 89.1 µM [inhibitor, partial curve, poor fit]
CNC(=O)c1ccc(NC(=O)COc2ccc(-c3nn(C)c(=O)c4ccccc34)cc2)cc1	–	inconclusive: 17.8 µM [inhibitor, full curve, poor fit]
